# Measured values from the supplement of paper PMC3334620.
# Whole data set: some 33,000 sequences, median “E-score (-0.5 to 0.5)” near -0.053, cut for the highest 2% near 0.37. The list shows a part of the results.
# Target: Hap1 (UniProt P0CE41)
# Assay: PBM E-score (8-mer binding enrichment) (E-score (-0.5 to 0.5)); higher = stronger / more preferred TF binding; most listed sequences are background and not binding sites
# Conditions: protein concentration: 200 nM; construct: GST-DNA-binding domain
# Method in brief: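 Bound GST-tagged yeast transcription factors, applied at about 100-200 nM to double-stranded universal all-10-mer Agilent arrays, were detected with fluorescent anti-GST. Scans were normalised with masliner. A modified Wilcoxon-Mann-Whitney statistic, the E-score, was assigned to each ungapped eight-base word pooled with its reverse complement by the Universal PBM Analysis Suite.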
# Sequence of UniProt P0CE41 (P0CE41 whole entry): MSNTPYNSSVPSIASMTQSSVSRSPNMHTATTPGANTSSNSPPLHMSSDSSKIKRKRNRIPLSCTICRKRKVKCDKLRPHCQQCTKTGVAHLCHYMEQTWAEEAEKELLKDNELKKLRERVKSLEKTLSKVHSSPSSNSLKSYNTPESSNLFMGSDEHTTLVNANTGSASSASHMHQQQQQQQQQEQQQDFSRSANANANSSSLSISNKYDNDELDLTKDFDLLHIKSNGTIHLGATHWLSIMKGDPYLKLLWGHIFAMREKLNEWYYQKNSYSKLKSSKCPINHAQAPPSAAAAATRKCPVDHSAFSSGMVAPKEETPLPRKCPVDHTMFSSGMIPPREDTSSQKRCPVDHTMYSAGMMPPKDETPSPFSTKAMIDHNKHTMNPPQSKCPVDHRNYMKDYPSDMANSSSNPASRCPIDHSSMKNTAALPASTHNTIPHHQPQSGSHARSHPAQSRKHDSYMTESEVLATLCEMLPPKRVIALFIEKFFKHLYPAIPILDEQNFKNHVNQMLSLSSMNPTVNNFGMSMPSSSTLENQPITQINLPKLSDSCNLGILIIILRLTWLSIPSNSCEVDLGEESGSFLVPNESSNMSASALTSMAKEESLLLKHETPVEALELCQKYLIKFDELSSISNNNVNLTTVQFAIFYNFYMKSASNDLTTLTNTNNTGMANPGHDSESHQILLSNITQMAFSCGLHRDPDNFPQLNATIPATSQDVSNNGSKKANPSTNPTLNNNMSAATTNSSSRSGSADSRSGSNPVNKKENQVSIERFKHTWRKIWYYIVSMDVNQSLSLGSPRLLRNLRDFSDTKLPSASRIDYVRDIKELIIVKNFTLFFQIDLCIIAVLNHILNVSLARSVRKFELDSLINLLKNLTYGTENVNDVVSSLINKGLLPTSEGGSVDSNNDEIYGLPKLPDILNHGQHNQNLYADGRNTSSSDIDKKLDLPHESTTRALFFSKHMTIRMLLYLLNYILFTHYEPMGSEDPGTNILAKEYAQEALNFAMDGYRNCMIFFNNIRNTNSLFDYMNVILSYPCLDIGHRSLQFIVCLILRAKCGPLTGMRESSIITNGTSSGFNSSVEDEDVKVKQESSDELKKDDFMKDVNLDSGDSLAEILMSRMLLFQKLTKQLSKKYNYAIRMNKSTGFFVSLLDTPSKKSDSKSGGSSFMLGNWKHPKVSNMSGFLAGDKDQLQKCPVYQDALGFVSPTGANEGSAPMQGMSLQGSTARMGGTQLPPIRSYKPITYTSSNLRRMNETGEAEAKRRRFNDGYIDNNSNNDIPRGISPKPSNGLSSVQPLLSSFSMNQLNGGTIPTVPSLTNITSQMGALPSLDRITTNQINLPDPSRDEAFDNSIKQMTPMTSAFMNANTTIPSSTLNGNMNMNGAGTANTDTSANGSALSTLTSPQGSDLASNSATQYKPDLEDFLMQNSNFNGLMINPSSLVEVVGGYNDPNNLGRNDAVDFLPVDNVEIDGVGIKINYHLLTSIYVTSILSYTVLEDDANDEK
row,Sequence,PBM E-score
1,AAAACTTC,-0.00716
2,AGTGCTTC,-0.0942
3,GAAGGTGA,0.0464
4,ACTACTGA,-0.182
5,AGCATTAC,-0.0674
6,ATAAACCA,-0.113
7,ATCGCCTC,0.00886
8,ACTGCCGG,0.279
9,AAAGTATC,0.109
10,GCTCGTTA,-0.118
11,ATAACAAC,0.00179
12,ATATTAAC,0.102
13,GCATACCC,-0.00604
14,CTCTGCCA,-0.191
15,CTCGGACA,0.415
16,CCTAACTC,-0.00719
17,CAAACGTC,-0.159
18,GCAATCGC,-0.0228
19,ATTGTCTA,0.00639
20,ATCTGATA,-0.153
21,CGTAGGCA,-0.255
22,AATGGCTC,-0.184
23,CCACAATA,-0.0095
24,CTAATTGA,-0.0983
25,TCTCCGAA,0.429

row,Sequence,PBM E-score
1,AACATACC,0.0198
2,AGATTGAA,-0.0357
3,TCATACCA,-0.237
4,ACAGGATA,-0.209
5,GCGGTAAA,0.292
6,ACCTCCCC,0.0732
7,CCCGCCCG,0.331
8,ATACCTCC,0.14
9,ACGCTCCA,-0.0571
10,ACACTGAA,-0.0306
11,GCGACAAA,-0.0379
12,ATCTCAAA,-0.0143
13,GATATCAA,0.105
14,GAACTGCA,-0.1
15,GACTCCAA,-0.28
16,TGTGGCAA,-0.116
17,CATGGGAG,-0.2
18,CAAGACTA,-0.267
19,CGCGGTAG,0.146
20,CCTGACCA,-0.218
21,GCTACAGA,-0.145
22,CAGACTTA,-0.269
23,AACGACAG,-0.22
24,GACGCCAA,-0.256
25,GAAGAGTA,-0.143

row,Sequence,PBM E-score
1,AAATAGAG,-0.106
2,CCAAGCTA,-0.112
3,CGGGAACA,0.271
4,ACGTGTGG,-0.178
5,CTCGGCAC,0.272
6,CGTTCTGC,0.0618
7,ACCAAGCC,-0.161
8,AGTTGTGG,-0.0781
9,AAGGCTAC,-0.102
10,CCCAGAAA,-0.0782
11,GGGCAAAC,0.154
12,TAGCCGGA,0.407
13,CCAACATC,0.144
14,AAACGAGC,-0.144
15,ACACGTCT,-0.172
16,ATTCACCA,-0.11
17,CTTGTACA,-0.293
18,CTACACCA,-0.157
19,AGTTTAAT,-0.0331
20,TCTTGGCA,-0.15
21,AATCTAAG,-0.242
22,AAACCGCT,0.0657
23,ACATGGTC,-0.231
24,CCTGAGCC,-0.283
25,AGGGGTGG,-0.0532

row,Sequence,PBM E-score
1,GATCAAGC,-0.0163
2,CAAGACTG,-0.233
3,CATCCGTA,0.2
4,GAGCACCA,-0.196
5,CACACGTG,-0.236
6,CCGCCAAG,0.0205
7,CGCCTGGC,-0.0355
8,ACAAGACG,-0.0566
9,CGACTTAA,-0.169
10,CGAACTGC,0.0235
11,GGCAATAA,0.303
12,CTCCTGCC,0.0153
13,AGAAACTG,-0.0846
14,TGTCGAAA,-0.229
15,AGTAAGGG,0.133
16,ATCTAGTG,-0.178
17,CAGATTGA,-0.0798
18,CAATAGTG,0.0993
19,GGTGGAGA,-0.103
20,GGAAAGCA,-0.0191
21,CTGGTGAC,-0.288
22,ACCCTGCC,0.00442
23,GGCTCGCA,-0.0127
24,ATTGGAAG,-0.0102
25,GCACAATA,-0.138

row,Sequence,PBM E-score
1,GATGCGAA,-0.0227
2,ATGTATCC,0.161
3,CCGATTTA,0.344
4,ACCTAAGA,-0.255
5,ACAAATCT,-0.072
6,ATACCATG,-0.115
7,AGGAATAA,-0.0441
8,TCTAGGAA,-0.272
9,GAGAAAGA,0.0531
10,AGCCATCA,-0.165
11,GACTGAAA,-0.0964
12,CGAAAACC,0.212
13,AATATTAT,0.172
14,CGTTAACC,0.132
15,GAACAGCC,-0.0942
16,ACATTCGG,0.278
17,CACTTGGA,-0.0892
18,ACTAGTAA,-0.217
19,AGAGTCAC,-0.294
20,CAGGTAGG,-0.0966
21,AGATACTA,0.163
22,AGGCCCTA,0.00667
23,GAGCAAAA,-0.17
24,CACTACGC,-0.167
25,ATCCAGGA,-0.174

row,Sequence,PBM E-score
1,TGACTACA,-0.287
2,AACCATAC,-0.041
3,CAACTGCG,-0.0825
4,CTCCCTCC,-0.0125
5,AAAGAGGG,-0.168
6,AGCGCTAC,0.112
7,CTGCCATA,0.0233
8,GTAGATGA,-0.148
9,GGCGAAAC,0.194
10,TGGATCCA,-0.00613
11,ATTTGCGC,0.215
12,GATCCCAC,0.0388
13,AATCTTAG,-0.171
14,AGTGTTAT,0.0404
15,CCCATCTA,0.0409
16,ACACCATA,-0.136
17,ACTACGTA,0.0393
18,ATGATCCA,-0.0202
19,AGCATATC,-0.0219
20,AATATTGT,-0.0103
21,GCGTTTGA,-0.152
22,AATCTAAC,-0.0965
23,TAACCATA,-0.208
24,AATTCGCC,0.101
25,ATAGCTGC,-0.172

row,Sequence,PBM E-score
1,GCGGGCAA,0.0958
2,CTACGTGA,-0.165
3,CCCAACTA,-0.0895
4,CCCGAGAG,0.312
5,GGTTGGCA,-0.178
6,CTAAGTCA,-0.185
7,CATTCGTC,-0.0122
8,AAGCCTGA,-0.238
9,GTACTAGA,-0.109
10,CGCGGTCA,0.208
11,ACTTACAG,-0.299
12,ACTTAGTA,-0.0571
13,GAACCTAC,0.00224
14,ACATCGGG,0.219
15,ATACAGAG,-0.266
16,GCCGCAAC,0.117
17,AGTACGTG,-0.138
18,GGTGCCCA,-0.106
19,ATCAACGC,-0.16
20,GCTGACAA,-0.0427
21,AAAATCCC,0.0176
22,CTTGCAAC,-0.201
